This passage reports inhibition results from PubChem BioAssay AID1434 (Sanford-Burnham Center for Chemical Genomics, 2008).

Some of the results follow. The main result of the screen is listed elsewhere. These columns were measured beside it and carry no call. Most of these compounds were active or inconclusive in the main read-out, so they are no random draw.

The term inhibition denotes the change of the read-out against control, counted positive when it falls.

In the test the target is Runt-related transcription factor 1 (Homo sapiens) + Core-binding factor subunit beta (Homo sapiens) (UniProt Q01196+Q13951). In words: inhibitors of RUNX1 Runt–CBFb-SMMHC binding, primary screen, biochemical, FRET, Cerulean-Runt, Venus-CBFb-SMMHC, uHTS (AID 1434).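 Also: 0% = DMSO wells and 100% = wells with excess untagged CBFb-SMMHC; inhibitors lower the FRET ratio by blocking Runt binding to CBFb-SMMHC.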 The settings on record: Cerulean-Runt/Venus-CBFb-SMMHC FRET ratio 530/480, 1 h; retest duplicate average; at 20 µM; stronger effect = higher value.
Sequence of UniProt Q01196 (Q01196 whole entry, looked up): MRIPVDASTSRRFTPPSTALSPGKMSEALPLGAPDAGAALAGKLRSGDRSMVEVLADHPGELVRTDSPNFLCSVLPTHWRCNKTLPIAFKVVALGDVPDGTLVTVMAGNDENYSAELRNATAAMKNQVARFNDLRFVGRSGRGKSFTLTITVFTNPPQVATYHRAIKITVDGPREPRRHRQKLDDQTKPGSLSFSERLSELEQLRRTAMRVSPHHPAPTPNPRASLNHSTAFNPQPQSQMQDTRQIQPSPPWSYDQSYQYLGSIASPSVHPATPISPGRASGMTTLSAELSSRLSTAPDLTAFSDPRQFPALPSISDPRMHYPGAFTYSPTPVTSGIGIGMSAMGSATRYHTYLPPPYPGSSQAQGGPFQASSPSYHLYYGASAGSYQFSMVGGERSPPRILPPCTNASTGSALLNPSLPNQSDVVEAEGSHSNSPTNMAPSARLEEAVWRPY
Sequence of UniProt Q01196 (Q13951 whole entry, looked up): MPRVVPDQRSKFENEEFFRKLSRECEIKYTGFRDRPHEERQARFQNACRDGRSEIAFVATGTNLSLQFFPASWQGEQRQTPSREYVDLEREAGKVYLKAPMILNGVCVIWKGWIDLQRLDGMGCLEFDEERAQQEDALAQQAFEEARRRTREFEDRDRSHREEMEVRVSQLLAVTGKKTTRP
As to `N#Cc1c2c(c(Nc3ccccc3)n3c1nc1ccccc13)CCC2`, the inhibition amounted to 105%.
To `Cn1c(=N)c(S(=O)(=O)c2ccc(F)cc2)cc2c(=O)n3ccccc3nc21` belongs 72.9%; to `Cc1ccc(S(=O)(=O)C(C#N)c2nc3ccccc3nc2N2CCN(C)CC2)cc1` (centres undefined), 70%; to `COCCN(CCOC)Cc1c(O)ccc2c3c(c(=O)oc12)CCC3`, 91%.
The value for `Cc1ccc(S(=O)(=O)c2cc3c(=O)n4ccccc4nc3n(Cc3ccco3)c2=N)cc1` was 72.9%; that for `COC(=O)c1c(N(S(C)(=O)=O)S(C)(=O)=O)sc2c1CCN(c1ncc(C(F)(F)F)cc1Cl)C2` was 131%.
Take `CCOC(=O)c1cc2c(=O)n3ccccc3nc2n(Cc2ccco2)c1=NC(=O)c1ccc(OC)cc1OC`: the inhibition came out at 70.6%.
Turning to `CCCn1c(=N)c(S(=O)(=O)c2ccccc2)cc2c(=O)n3ccccc3nc21`, the inhibition was 70.6%.
In the case of `N#CC1(C#N)C(c2ccccc2)OC23CCCCCC2C1(C#N)C(=N)O3` (centres undefined), the inhibition came to 72.8%.
To `CN(C)CCCNC(=S)NCCNc1nc2cc3c(cc2cc1C#N)OCO3` belongs 174%; to `O=S(=O)(Nc1ccc(-c2nc3cccnc3s2)cc1)c1ccc(Cl)s1`, 129%; to `NSc1nc(N)c2nc(-c3ccccc3)c(-c3ccccc3)nc2n1`, 88.2%.
In the case of `COc1cccc(C2C=C(c3ccc(Br)s3)Nc3ncnn32)c1OC` (centres undefined), the inhibition was 71.5%.
To `CCOC(=O)c1c(/N=C/N(C)C)sc(/C=N/Nc2ccccc2)c1-c1ccccc1` belongs 151%; to `O=c1oc2ccc3ccccc3c2cc1-c1nnc(-c2cccs2)o1`, 71.5%.
The value for `O=C(O)CSc1c2c(nc3cc(C(=O)N4CCOCC4)ccc13)CCCC2` was 106%.
`O=C(Oc1ccc2c3c(c(=O)oc2c1)CCCC3)c1ccco1`: the inhibition is 178%.
As for `CS(=O)(=O)c1sc2nc(-c3cccs3)cc(-c3ccccc3)c2c1N`, the inhibition is 114%.
Consider `Cc1ccc2nc3nc(NCC4CCCO4)c(C(=O)NC4CCCC4)cc3c(=O)n2c1` (centres undefined), for which the inhibition was determined as 71.5%.
To `CCn1c2ccccc2c(=O)c2ccccc21` belongs 70.6%.
To `CCCCn1c(=NC(=O)c2cccnc2)c(C(=O)OCC)cc2c(=O)n3ccccc3nc21` belongs 102%; to `CC1C2(C)OCC(C#N)(C(=N)O2)C1(C#N)C#N` (centres undefined), 57.4%.
With `COC(=O)c1cccc(/C=N/NC(N)=S)c1O`, the inhibition was determined as 70.5%.
Turning to `COc1cc(C2C(C#N)=C(N)Oc3cc(N)ccc32)cc(OC)c1OC` (centres undefined), the inhibition amounted to 61.6%.
As to `CCCn1c(=N)c(C(=O)NCc2ccc3c(c2)OCO3)cc2c(=O)n3cccc(C)c3nc21`, the inhibition is 148%.
Consider `Cc1cc(C)n2c(=S)[nH]nc2n1`, for which the inhibition amounted to 58.9%.
As to `COc1cccc(C2C3CN(C)CC=C3C(C#N)=C(N)C2(C#N)C#N)c1OC` (centres undefined), the inhibition came out at 74%.
To `Cc1ccc(C)c(-n2c(=O)c(C#N)cc3c(=O)n4ccccc4nc32)c1` belongs 70.6%; to `CCc1ccc(S(=O)(=O)Nc2ccc(-c3nc4cccnc4s3)cc2)s1`, 138%.
